Assay results published in the supplement of paper PMC8728848.
The other results are listed elsewhere or left out.

Legend:
Assay in all cases: glycan array binding signal (z-score within array); higher = stronger binding
Conditions in all cases: glycan notation: IUPAC condensed, linker removed
[1] = molecular target: Neu5Ac(a2-6)Gal(b1-4)GlcNAc(b1-2)Man(a1-6)[Gal(b1-4)GlcNAc(b1-2)Man(a1-3)]Man(b1-4)GlcNAc(b1-4)GlcNAc
How it was run: (§1)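 The binding signal is a Z-score computed within each array. Data were drawn from 3228 arrays in the Consortium for Functional Glycomics database, restricted to those with a known protein sequence. Scores were averaged over arrays of the same protein sequence at different concentrations or buffers, and over linkers, and negative values can be taken as non-binding.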

[2] = molecular target: Neu5Ac(a2-6)Gal(b1-4)GlcNAc(b1-2)Man(a1-6)[GlcNAc(b1-2)Man(a1-3)]Man(b1-4)GlcNAc(b1-4)GlcNAc
How it was run: as §1

[3] = molecular target: Neu5Ac(a2-6)Gal(b1-4)GlcNAc(b1-2)Man(a1-6)[Man(a1-3)]Man(b1-4)GlcNAc(b1-4)GlcNAc
How it was run: as §1

[4] = molecular target: Neu5Ac(a2-6)Gal(b1-4)GlcNAc(b1-3)Gal(b1-3)GlcNAc
How it was run: as §1

[5] = molecular target: Neu5Ac(a2-6)Gal(b1-4)GlcNAc(b1-3)Gal(b1-4)GlcNAc
How it was run: as §1

[6] = molecular target: Neu5Ac(a2-6)Gal(b1-4)GlcNAc(b1-3)Gal(b1-4)GlcNAc(b1-3)Gal(b1-4)GlcNAc
How it was run: as §1

[7] = molecular target: Neu5Ac(a2-6)Gal(b1-4)GlcNAc(b1-3)Gal(b1-4)[Fuc(a1-3)]GlcNAc(b1-3)Gal(b1-4)[Fuc(a1-3)]GlcNAc
How it was run: as §1

[8] = molecular target: Neu5Ac(a2-6)Gal(b1-4)GlcNAc(b1-3)GalNAc
How it was run: as §1

[9] = molecular target: Neu5Ac(a2-6)Gal(b1-4)GlcNAc6S
How it was run: as §1

Neu5Ac(a2-6)GalNAc = molecular target: Neu5Ac(a2-6)GalNAc
How it was run: as §1

[10] = molecular target: Neu5Ac(a2-6)GalNAc(b1-4)GlcNAc
How it was run: as §1

[11] = molecular target: Neu5Ac(a2-6)GlcNAc(b1-4)GlcNAc
How it was run: as §1

[12] = molecular target: Neu5Ac(a2-6)GlcNAc(b1-4)GlcNAc(b1-4)GlcNAc
How it was run: as §1

Neu5Ac(a2-8)Neu5Ac = molecular target: Neu5Ac(a2-8)Neu5Ac
How it was run: as §1

[13] = molecular target: Neu5Ac(a2-8)Neu5Ac(a2-3)Gal(b1-3)GalNAc(b1-4)[Neu5Ac(a2-8)Neu5Ac(a2-3)]Gal(b1-4)Glc
How it was run: as §1

[14] = molecular target: Neu5Ac(a2-8)Neu5Ac(a2-3)Gal(b1-4)Glc
How it was run: as §1

[15] = molecular target: Neu5Ac(a2-8)Neu5Ac(a2-3)[Gal(b1-3)GalNAc(b1-4)]Gal(b1-4)Glc
How it was run: as §1

[16] = molecular target: Neu5Ac(a2-8)Neu5Ac(a2-3)[GalNAc(b1-4)]Gal(b1-4)Glc
How it was run: as §1

[17] = molecular target: Neu5Ac(a2-8)Neu5Ac(a2-8)Neu5Ac
How it was run: as §1

[18] = molecular target: Neu5Ac(a2-8)Neu5Ac(a2-8)Neu5Ac(a2-3)Gal(b1-4)Glc
How it was run: as §1

[19] = molecular target: Neu5Ac(a2-8)Neu5Ac(a2-8)Neu5Ac(a2-3)[GalNAc(b1-4)]Gal(b1-4)Glc
How it was run: as §1

[20] = molecular target: Neu5Ac(a2-8)Neu5Ac(a2-8)Neu5Ac(a2-8)Neu5Ac(a2-3)[GalNAc(b1-4)]Gal(b1-4)Glc
How it was run: as §1

[21] = molecular target: Neu5Ac(b2-6)Gal(b1-4)GlcNAc
How it was run: as §1

Neu5Ac(b2-6)GalNAc = molecular target: Neu5Ac(b2-6)GalNAc
How it was run: as §1

[22] = molecular target: Neu5Ac9Ac(a2-3)Gal(b1-3)GlcNAc
How it was run: as §1

[23] = molecular target: Neu5Ac9Ac(a2-3)Gal(b1-4)GlcNAc
How it was run: as §1

[24] = molecular target: Neu5Ac9Ac(a2-6)Gal(b1-4)GlcNAc
How it was run: as §1

[25] = molecular target: Neu5Gc(a2-3)Gal(b1-3)GlcNAc
How it was run: as §1

[26] = molecular target: Neu5Gc(a2-3)Gal(b1-3)[Fuc(a1-4)]GlcNAc
How it was run: as §1

Neu5Gc(a2-3)Gal(b1-4)Glc = molecular target: Neu5Gc(a2-3)Gal(b1-4)Glc
How it was run: as §1

[27] = molecular target: Neu5Gc(a2-3)Gal(b1-4)GlcNAc
How it was run: as §1

[28] = molecular target: Neu5Gc(a2-3)Gal(b1-4)[Fuc(a1-3)]GlcNAc
How it was run: as §1

[29] = molecular target: Neu5Gc(a2-6)Gal(b1-4)GlcNAc
How it was run: as §1

Neu5Gc(a2-6)GalNAc = molecular target: Neu5Gc(a2-6)GalNAc
How it was run: as §1

[30] = molecular target: Neu5Gc(b2-6)Gal(b1-4)GlcNAc
How it was run: as §1

B1: Gz-CVNH (Gibberella zeae) (protein)
chain: MGSSHHHHHHSSGLVPRGSHMGNFHESSNNIWLEDGHILHAECGNGEGDYVESTLDLDYYIGNDDGSFSWGGENFSGSASNITLDIEGDDNIPVLRAELNPMDGDPVEANVNLSERIGNDCGTLIFLA
[1]
  glycan array binding signal (z-score): -0.098
[2]
  glycan array binding signal (z-score): -0.097
[3]
  glycan array binding signal (z-score): -0.1
[4]
  glycan array binding signal (z-score): -0.109
[5]
  glycan array binding signal (z-score): -0.165
[6]
  glycan array binding signal (z-score): -0.154
[7]
  glycan array binding signal (z-score): -0.129
[8]
  glycan array binding signal (z-score): -0.117
[9]
  glycan array binding signal (z-score): -0.163
Neu5Ac(a2-6)GalNAc
  glycan array binding signal (z-score): -0.153
[10]
  glycan array binding signal (z-score): -0.166
[11]
  glycan array binding signal (z-score): -0.16
[12]
  glycan array binding signal (z-score): -0.14
Neu5Ac(a2-8)Neu5Ac
  glycan array binding signal (z-score): -0.124
[13]
  glycan array binding signal (z-score): -0.156
[14]
  glycan array binding signal (z-score): -0.088
[15]
  glycan array binding signal (z-score): -0.119
[16]
  glycan array binding signal (z-score): -0.125
[17]
  glycan array binding signal (z-score): -0.155
[18]
  glycan array binding signal (z-score): -0.128
[19]
  glycan array binding signal (z-score): -0.153
[20]
  glycan array binding signal (z-score): -0.142
[21]
  glycan array binding signal (z-score): -0.152
Neu5Ac(b2-6)GalNAc
  glycan array binding signal (z-score): -0.108
[22]
  glycan array binding signal (z-score): -0.143
[23]
  glycan array binding signal (z-score): -0.13
[24]
  glycan array binding signal (z-score): -0.125
[25]
  glycan array binding signal (z-score): -0.126
[26]
  glycan array binding signal (z-score): -0.134
Neu5Gc(a2-3)Gal(b1-4)Glc
  glycan array binding signal (z-score): -0.113
[27]
  glycan array binding signal (z-score): -0.091
[28]
  glycan array binding signal (z-score): -0.121
[29]
  glycan array binding signal (z-score): -0.165
Neu5Gc(a2-6)GalNAc
  glycan array binding signal (z-score): -0.142
[30]
  glycan array binding signal (z-score): -0.124
